Reference: PubChem BioAssay AID2675 (National Center for Advancing Translational Sciences (NCATS), 2010)
Screen size: about 280,000 compounds; about 100 (0.036%) were called active. Inconclusive means that the source gave no clear call. Such entries were picked first, then a sample of the others. Calls come from the whole dose curve; as a rule, active = well fitted inhibition curve with a large enough effect in the signal ratio, with a control signal flat (not every such curve was filed as active); inconclusive = small, poorly fitted or top-dose-only effect, or effect the other way, or a change in a side signal; inactive = no such curve, though single readings can be large or run the other way; the % refers to the signal ratio. Potencies beside an inconclusive call are fits to weak or partial responses and may not hold up. “Side channel” marks fits to a control or component signal instead of the main read-out.

Target: Muscleblind-like protein 1 (Homo sapiens) (UniProt Q9NR56)
Sequence of UniProt Q9NR56 (Q9NR56 whole entry, looked up): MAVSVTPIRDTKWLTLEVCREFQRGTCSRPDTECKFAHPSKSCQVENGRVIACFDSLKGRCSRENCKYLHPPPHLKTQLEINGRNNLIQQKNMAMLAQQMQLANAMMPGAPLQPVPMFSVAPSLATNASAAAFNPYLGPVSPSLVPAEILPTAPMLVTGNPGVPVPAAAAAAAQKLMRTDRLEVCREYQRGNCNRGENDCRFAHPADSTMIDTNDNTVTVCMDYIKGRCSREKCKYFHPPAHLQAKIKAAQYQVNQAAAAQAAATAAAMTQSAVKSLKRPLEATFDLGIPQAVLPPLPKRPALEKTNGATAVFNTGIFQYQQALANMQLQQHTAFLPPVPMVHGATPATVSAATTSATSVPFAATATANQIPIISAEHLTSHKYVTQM
Assay: qHTS Assay for Inhibitors of MBNL1-poly(CUG) RNA binding
Settings: TR-FRET MBNL1-His/biotin-(CUG)12 binding, 665/545 ratio; activity change, negative = inhibition: at 57.5 µM (top of the series)
Procedure, shortened: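 His-tagged MBNL1 binding to biotinylated (CUG)12 RNA was measured by TR-FRET using terbium anti-His antibody (0.055 ng/ul final) and streptavidin-XL665 (5 nM final). Compounds were titrated 92 nM to 58 uM; 60 min at room temperature.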
% is set by controls: 0 for no effect and ±100 for the full control effect; potency is the fitted concentration of half-maximal effect; tags give direction and shape of the fitted curve or compound fluorescence and quenching.

| SMILES | Potency | activity change, negative = inhibition |
| --- | --- | --- |
| O=c1[nH][nH]c2c(N=Cc3ccccc3O)ccc(F)c12 | inconclusive: 10 µM [quencher, side channel, partial curve] |  |
| O=[N+]([O-])c1ccc(OCc2cnc(Cl)s2)cc1 | inconclusive: 28.2 µM [quencher, side channel, partial curve] |  |
| COc1ccccc1C(=O)Nc1nc2ccc(S(C)(=O)=O)cc2s1 | inconclusive: 7.94 µM [fluorescent, side channel, full curve, poor fit] |  |
| CN(C)CCNc1ncnc2sc(-c3ccccc3)cc12 | inconclusive: 31.6 µM [quencher, side channel, single point] |  |
| O=C1CCCC(O)=C1N=Nc1ccc(C(=O)O)cc1 | inconclusive: 10 µM [quencher, side channel, partial curve] |  |
| S=C(NCCCc1ccccc1)Nc1ccc(Cl)cc1 | inactive |  |
| O=C(C[n+]1ccc(/C=N/O)cc1)NC1CCCCC1 | inconclusive: 11.2 µM [quencher, side channel, partial curve] |  |
| COCCN(CCOC)S(=O)(=O)c1ccc(C(=O)NC2CCN(Cc3ccccc3)CC2)cc1 | inactive |  |
| CN(C)c1ccc(Nc2ccc([N+](=O)[O-])cn2)cc1 | inconclusive: 3.98 µM [quencher, side channel, full curve] |  |
| O=C(CN1C(=O)c2cccc3cccc(c23)C1=O)N1CCCCCC1 | inconclusive: 3.55 µM [quencher, full curve] |  |
| N#Cc1cc2c(nc1SCc1ccc(Cl)cc1)CCCC2 | inconclusive: 3.16 µM [quencher, side channel, partial curve] |  |
| C#CCNC(=O)c1ccc(OCc2ccccc2)cc1Cl | inactive |  |
| S=C(Nc1ccc(Oc2ccccc2)cc1)NC1CCCCCC1 | inconclusive: 0.1 µM [fluorescent, side channel, partial curve, poor fit] |  |
| Cc1ccc(Sc2cc(C(=O)c3ccccc3C(=O)O)ccc2[N+](=O)[O-])cc1 | inconclusive: 31.6 µM [quencher, side channel, single point] |  |
| COc1ccc(CCOC(=O)c2ccc(N)c([N+](=O)[O-])c2)cc1 | inconclusive: 20 µM [quencher, side channel, single point] |  |
| CCCCN(CC)C(=O)CN(C)S(=O)(=O)c1cccc2nsnc12 | inconclusive: 7.08 µM [quencher, side channel, partial curve] |  |
| O=C(CSc1nc2ccccc2c(=O)n1-c1ccc(OC(F)F)cc1)NCc1cccs1 | inconclusive: 0.316 µM [fluorescent, side channel, partial curve] |  |
| COc1ccccc1-c1nnc(Sc2nc([N+](=O)[O-])nn2C)o1 | inconclusive: 14.1 µM [quencher, side channel, partial curve] |  |
| Cn1c(=O)c2c(SCc3c(F)cccc3Cl)nc(CC(C)(C)C)nc2n(C)c1=O | inactive |  |
| Clc1ncccc1-c1nc2ccccc2s1 | inactive |  |

| SMILES | Potency | activity change, negative = inhibition |
| --- | --- | --- |
| COc1ccccc1Nc1nc(Cl)c(C=O)s1 | inconclusive: 17.8 µM [quencher, partial curve] |  |
| O=[N+]([O-])c1ccc(/C=N/N/C(=N/c2ccccn2)c2ccccn2)cc1 | inconclusive: 20 µM [quencher, side channel, partial curve] |  |
| CSc1nc(N(C)NC(=O)c2ccc(Cl)cc2)c2ccccc2n1 | inconclusive: 8.91 µM [quencher, side channel, single point] |  |
| O=C(c1cccc(Cl)c1)c1nn(-c2ccccc2)c(=O)cc1C(F)(F)F | inconclusive: 25.1 µM [quencher, side channel, single point] |  |
| COc1ccc(/C=N/NC(=O)c2nn(-c3ccc(Cl)cc3)c(=O)c3c(N)scc23)cc1 | inconclusive: 15.8 µM [quencher, side channel, partial curve] |  |
| O=C1c2oc3ccccc3c(=O)c2C(c2cccc(Br)c2)N1Cc1ccco1 (stereo not given) | inactive |  |
| COc1ccc(NC2CCCN(C(=O)c3ccc(CSC)o3)C2)cc1OC (stereo not given) | inconclusive: 39.8 µM [quencher, side channel, single point] |  |
| COCC(=O)n1nc(-c2ccccc2)nc1NCc1ccc(N(C)C)cc1 | inactive |  |
| CN1C(=O)/C(=C/c2ccccc2OCc2ccc(C(=O)O)cc2)NC1=S | inconclusive: 20 µM [quencher, side channel, partial curve] |  |
| O=C(O)c1ccc(NCc2cccc(Br)c2)cc1 |  | inactive: -18.4% [at 11.5 µM] |
| N#C/C(=C\c1ccc(-c2ccc(C(=O)O)cc2)o1)C(=O)Nc1ccc(F)cc1 | inconclusive: 5.62 µM [quencher, side channel, partial curve] |  |
| COc1ccc(CNc2ccc(C)cc2)cc1Br | inconclusive: 39.8 µM [inhibitor, single point] |  |
| N#Cc1c(NC(=O)CSc2nnnn2C2CCCCC2)sc2c1CCCC2 | inactive |  |
| COc1cc(/C=C2\CCCc3c2nc2ccccc2c3C(=O)O)cc([N+](=O)[O-])c1O | inconclusive: 12.6 µM [quencher, side channel, partial curve] |  |
| O=C(N/N=C/c1ccc(-c2ccccc2[N+](=O)[O-])o1)c1cccnc1 | inconclusive: 17.8 µM [quencher, side channel, partial curve] |  |
| O=C(CCCN1C(=O)c2cccc3cccc(c23)C1=O)N1CCN(Cc2ccc3c(c2)OCO3)CC1 | inconclusive: 10 µM [quencher, side channel, partial curve] |  |
| COc1cc(/C=N/NC(=S)NC(C)C)ccc1OCC(=O)Nc1c(C)cc(C)cc1C | inactive |  |
| O=C(CSc1nc2ccc([N+](=O)[O-])cc2s1)NCC1CCCO1 (stereo not given) | inconclusive: 12.6 µM [quencher, side channel, partial curve] |  |
| Cc1cc(-c2ccccc2)nc2cc(C(N)=O)nn12 | inconclusive: 39.8 µM [quencher, single point] |  |
| COc1ccccc1N=c1oc2cc(O)ccc2cc1C(N)=O | inconclusive: 28.2 µM [quencher, side channel, single point] |  |

| SMILES | Potency | activity change, negative = inhibition |
| --- | --- | --- |
| CC(=O)N/C(=C\c1cccc([N+](=O)[O-])c1)C(=O)NC(C)C | inconclusive: 35.5 µM [quencher, side channel, single point] |  |
| Cc1ccccc1C(=O)O/N=C(\N)Cc1cccs1 | inactive |  |
| CC(=O)N(C)c1ccc(N=Cc2c(O)ccc3ccccc23)cc1 | inconclusive: 31.6 µM [quencher, side channel, single point] |  |
| O=C(CSc1nnc(SCc2ccccc2)s1)N/N=C/c1c[nH]c2ccccc12 | inconclusive: 79.4 µM [inhibitor, single point] |  |
| COc1ccc(Cn2cc([N+](=O)[O-])nc2C)cc1[N+](=O)[O-] | inconclusive: 17.8 µM [quencher, side channel, partial curve] |  |
| O=C(OCc1cc(=O)n2cc(Br)ccc2n1)C1COc2ccccc2O1 (stereo not given) | inconclusive: 17.8 µM [quencher, side channel, partial curve] |  |
| CCN(CC)C(=O)c1ccc2c3c(cccc13)C(=O)N(CCc1ccc(OC)c(OC)c1)C2=O | inconclusive: 14.1 µM [quencher, side channel, partial curve] |  |
| CSc1nnc2c(n1)OC(c1ccsc1)N(C(C)=O)c1ccccc1-2 (stereo not given) | inconclusive: 12.6 µM [quencher, partial curve] |  |
| CC(=O)OCCN(C)c1cc(SC(C)C)c2nonc2c1[N+](=O)[O-] | inconclusive: 12.6 µM [quencher, side channel, partial curve] |  |
| Cc1cc(C(=O)N/N=C/C(Cl)=C/c2ccccc2)c(C)o1 | inactive |  |
| CCn1ccnc1CNC(=O)c1cc(COc2ccc(F)cc2F)on1 | inconclusive: 100 µM [inhibitor, single point] |  |
| Nc1nonc1C(=O)NCCNc1ccc([N+](=O)[O-])cn1 | inconclusive: 17.8 µM [quencher, side channel, partial curve] |  |
| COc1ccccc1-c1nnc(NC(=O)c2cccc(N3C(=O)CCC3=O)c2)o1 | inconclusive: 39.8 µM [quencher, side channel, single point] |  |
| Cc1ccc(S(=O)(=O)N2C(=O)CCC2C(=O)O/N=C(\N)c2cccc([N+](=O)[O-])c2)cc1 (stereo not given) | inconclusive: 28.2 µM [quencher, side channel, partial curve] |  |
| COc1ccccc1C1C(C#N)=C(N)Oc2c1oc(CO)cc2=O (stereo not given) | inconclusive: 17.8 µM [quencher, side channel, single point] |  |
| O=C(Cn1ncc2ccccc21)N1CCc2ccccc21 | inconclusive: 35.5 µM [quencher, side channel, single point] |  |
| O=C(NCCN1C(=O)S/C(=C/c2cccnc2)C1=O)C1CC(=O)N(Cc2ccccc2)C1 (stereo not given) | inconclusive: 11.2 µM [quencher, side channel, partial curve] |  |
| CCS(=O)(=O)c1ccc(-c2csc(-c3ccccc3Cl)n2)c(Cl)c1Cl | inactive |  |
| CSc1cnc2c(=O)n(C)c(=O)[nH]c2n1 | inconclusive: 28.2 µM [quencher, side channel, single point] |  |
| O=C(CSc1nnc2c(n1)[nH]c1ccccc12)Nc1ccc(S(=O)(=O)Nc2ncccn2)cc1 | inconclusive: 15.8 µM [quencher, side channel, partial curve] |  |
